Here are results for 22 molecules from article PMC12136788.

The list shows a part of the results.

T1: UNK ZnF1-3 (human, UniProt Q9C0B0 31-174)
T1 sequence: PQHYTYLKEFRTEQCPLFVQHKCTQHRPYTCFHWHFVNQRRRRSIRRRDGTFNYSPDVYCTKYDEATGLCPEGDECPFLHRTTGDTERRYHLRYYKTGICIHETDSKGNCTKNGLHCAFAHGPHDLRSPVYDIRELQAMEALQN

B1: chr3:167437968:167437969:-_ENSG00000114209_ENST00000497056|hu_hu|motif|central (ssRNA)
RNA: GGGAGUUCUACAGUCCGACGAUCUUCAUCUCUUCCAUUGUCAUCCUCAUUCAAAAGCCAACUACAGUUGAAAAAGCAGUGCGGAAAUGCAGAGGAAUCUUCAUUCACUGCAAUAUUUCUUCUCUUUUUUGGUGAUAAAAGAAUCAACAGAGGAUUGAGCAUCA
B2: chr1:174973770:174973771:+_ENSG00000116161_ENST00000406752|hu_hu|FALSE|FALSE (ssRNA)
RNA: GGGAGUUCUACAGUCCGACGAUCGAUUUCUGUCUCAAUCUUGGAUUUUUCAGCUGUAAGGGCAUCACGUACUCUUUUCCUAGUAGCCUUUUCCAGCAACACCUUUACCUCUUCUAGAUCUUUCUGUAGCUCUUCUGAAGCCAUCAACAGAGGAUUGAGCAUCA
B3: chr2:37325018:37325019:+_ENSMUSG00000035437_ENSMUST00000112920|perfect_dup|FALSE|FALSE (ssRNA)
RNA: GGGAGUUCUACAGUCCGACGAUCAUUAUUUGUAGAUGGUGUCUCAUCUCCUUGCCUGGAAACCAAGACAAAAUCUUCACUAUUAAGAGUAGACACUGAGUCUGAUGAGACACUGAUUUUUCCAACAGAGGCCUUGUCAUCCAUCAACAGAGGAUUGAGCAUCA
B4: chr11:99246770:99246771:-_ENSMUSG00000019761_ENSMUST00000103131|mus_hu|FALSE|FALSE (ssRNA)
RNA: GGGAGUUCUACAGUCCGACGAUCAAAAGAAGAAAUACAGAAACCACAAAACACCUUGUAGACACCUUAUUUUCAAGGUCUAUUUCCAUAGACCAUCAAGACAGAAGUGUUUUCUUGGAGACUUUGUUUUCCAUGCAUCUGUAACAACAGAGGAUUGAGCAUCA
B5: chr5:138118867:138118868:+_ENSG00000044115_ENST00000302763|hu_hu|FALSE|FALSE (ssRNA)
RNA: GGGAGUUCUACAGUCCGACGAUCAGCCAAAACAUGGGCCUUCUUAGAACGACCUCUCUUCUUAUUAGAGGGCCCUUUACUAUUGGUGUUUACAAGGGUUGUAACCUGUGUAACAAGAGGCUCCAACAGUCUCUCAACUGCCAGCAACAGAGGAUUGAGCAUCA
B6: chr2:158593201:158593202:-_ENSG00000115170_ENST00000434821|hu_mus|motif|central (ssRNA)
RNA: GGGAGUUCUACAGUCCGACGAUCUGAAAUCUUUGCUUCUAAAUCAGUAAUAUAUCGGGUGGUGUUGCAUGGGUAAUGGCGGAAUAUGUUCUGCAUACGAACUGAAAAGAAAGUUACAGUCUACACACAUUUAAAAAAAAAAAUCAACAGAGGAUUGAGCAUCA
B7: chr5:86670034:86670035:+_ENSG00000145715_ENST00000456692|hu_hu|FALSE|FALSE (ssRNA)
RNA: GGGAGUUCUACAGUCCGACGAUCUUCUGACCAUACUGGGUUUUGCCCUUCCCUUGCAUGAGUUUUUGCUACUUGGACACUAUUCAGGUAGAUGUUACAAUAUGGAUUAGUAAAAUGUUUUACUGGGAGUUUAUGGGCUUCUUCCAACAGAGGAUUGAGCAUCA
B8: chr7:109059925:109059926:+_ENSMUSG00000030842_ENSMUST00000033131|mus_hu|FALSE|FALSE (ssRNA)
RNA: GGGAGUUCUACAGUCCGACGAUCGCAGGUUAGGGUACUGUAUAAGCCGCAGUGAGGCUGGGGGCCAAGGGGGUGGGGUAGAGAUGGGAUGAAGAGAGGAGAAGAGCUGUCCAAGGACCCCUCUCUUCAUGGGAUCCCAAACUGCAACAGAGGAUUGAGCAUCA
B9: chr7:141445308:141445309:+_ENSG00000106028_ENST00000265304|hu_hu|hu_hu_hu_mus_False|58_58 (ssRNA)
RNA: GGGAGUUCUACAGUCCGACGAUCUAUGAUUGUUGUUGCUUGCCGCCUCACAUUGUUUUUAUCCAUGUACUCGCCAUAGUCUAUUUUCCCUUCCACAAAUAUACGAGCCCCCUUUUUCACAUACUGAUAUGCCACAUCUCUGAGCAACAGAGGAUUGAGCAUCA
B10: chr5:40767622:40767623:-_ENSG00000132356_ENST00000397128|hu_mus|hu_hu_hu_mus_False|58_58 (ssRNA)
RNA: GGGAGUUCUACAGUCCGACGAUCAUCUUUUAUUGCGGCCCUCUUCAUGGGAUCCACCUGCAGCAUAUGUUUCAAAAGGCUAAUCACUGAAGGGUUUAAGUACUGAGGGGUAUAAAAGAUCCCAUCACAUAUCUUCUUAAAAAGCAACAGAGGAUUGAGCAUCA
B11: chr6:18258251:18258252:-_ENSG00000124795_ENST00000397239|hu_hu|FALSE|FALSE (ssRNA)
RNA: GGGAGUUCUACAGUCCGACGAUCCUUCUUUAAUGAGGACACAGUGCCUGGCCUGUUGUAAAGCAGUUUGUGUAGAUUUCUAAGUUCAUCGGUUUUCUUCUUACUUAGAAAAAAAUGUAUCCUCUCAAUUUCACAAAGUUUCUGCAACAGAGGAUUGAGCAUCA
B12: chr16:45382771:45382772:-_ENSMUSG00000022661_ENSMUST00000163230|mus_mus|mus_mus_mus_hu_True|98_108 (ssRNA)
RNA: GGGAGUUCUACAGUCCGACGAUCCUGAGUGUUAUUGUGGGCCCAAUGGACAGGGAGGGCAUGCUUCUCAAAAAAUGUGAGCUAUUGUCUAAGACUAACAAUAUUUAUCUAGCUAUAAAAAUAAGUUAAAUGAAUAAGUUAAGACAACAGAGGAUUGAGCAUCA
B13: chr14:66974463:66974464:+_ENSMUSG00000022044_ENSMUST00000074523|mus_hu|mus_mus_mus_hu_False|68_78 (ssRNA)
RNA: GGGAGUUCUACAGUCCGACGAUCUUGUAGGACGACUUAUUCAGGGGAUCGGCCAGGAAGCAAGAGCAGAACAGAGACACCAGCGGGAGCUCCUUCAUCUUCUCUUUGUAGGCAGCAAGGGUCAUGUUUCUGGGAUCUGGUGGCCAACAGAGGAUUGAGCAUCA
B14: chr5:65459698:65459699:+_ENSG00000153914_ENST00000334121|hu_hu|motif|central (ssRNA)
RNA: GGGAGUUCUACAGUCCGACGAUCCAUUACUUCUUCUAACUCCUUAGCUGCAGCCUGAGGUGUCAUCUCAGGGGGUUUUACGGUUGCAUUGUUGGAGUGAUUUAUUUUCAGUGGCCUGUCUCCAAACAUAACUCCAUUAAAAGCCAACAGAGGAUUGAGCAUCA
B15: 91636688_91636808_2471_3pUTR_ENSG00000180694_ENST00000458549|human|control|control (ssRNA)
RNA: GGGAGUUCUACAGUCCGACGAUCUCAUAUGCCAAAUUAUAUUCUAUAGUCAUAAGUGCUAUUAAUAAAUACAUUUGAUUCAUGCUACAAGAGAAAGAAUUGAGACAAUUUCACAUUUCAGAAUUCCUGAGUCUUAUCAGAGAACAACAGAGGAUUGAGCAUCA
B16: chr11:101919151:101919152:-_ENSMUSG00000017314_ENSMUST00000017458|mus_hu|FALSE|FALSE (ssRNA)
RNA: GGGAGUUCUACAGUCCGACGAUCCAAAUGAGAUUCCUAGUAUAAGAAAUAUAUUCUAACAUUUGUAAUAAAUAUUCUGUUUAUUCUCCUUCCCCUUCCCUAGGAAAUGGGCACACAGUGGUUCAGGGGCCAGCUUUGGCUGACCAACAGAGGAUUGAGCAUCA
B17: chr6:114281168:114281169:-_ENSG00000196591_ENST00000368632|hu_hu|hu_hu_hu_mus_True|98_108 (ssRNA)
RNA: GGGAGUUCUACAGUCCGACGAUCUUCCAUUUUUCUGUAUAAGCCAUAAUUUAGCAGCAAGUUAUGAGUCAUCCGGAUUCUAUGAGGCUUCAUGGGAUGACCCUGGCCAUAAUAAUAAUUGCCAAUAUCACCAUCAUAGUAGUACAACAGAGGAUUGAGCAUCA
B18: chr16:94690093:94690094:+_ENSMUSG00000040785_ENSMUST00000117648|mus_hu|mus_mus_mus_hu_True|1_38 (ssRNA)
RNA: GGGAGUUCUACAGUCCGACGAUCGGGCUGGGAUGACGGACACACAGCCUCGAUUCCAGGGGGAAAAAGUCUUAGUCGAUACUAAUUAAAAAGUGUUUUUAUAAUUGGAAAAUCAGAUUACAUCUAUAAAAGAUGAAAGCACUUCAACAGAGGAUUGAGCAUCA
B19: 48543538_48543658_587_CDS_ENSG00000177981_ENST00000317697|human|control|control (ssRNA)
RNA: GGGAGUUCUACAGUCCGACGAUCGGCAGCCCAGCUGAGCGGUGUAUCAUUGUUGUAAUCCAGGGCAUUGACAGAGGCCCCGCUCUCUAGGAGAGCCCGCACACACUCAGCAUUGUUCUUAAAGGCUGCCCAGUGAAGUGGGGUCAACAGAGGAUUGAGCAUCA
B20: chr3:176767854:176767855:-_ENSG00000177565_ENST00000430069|hu_hu|hu_hu_hu_mus_False|8_78 (ssRNA)
RNA: GGGAGUUCUACAGUCCGACGAUCGACAUCCUUGUUACUGGGCACGUCCUGCCCUCCUUCUCGUAUACAGUGUCUAAGCACGAGCUGCGUAGGGCCACUCGUGCUGUUCUCACUGAGGUUCCAGAUUCUUGCUGUUGAGUCUCCCAACAGAGGAUUGAGCAUCA
B21: chr1:163112212:163112213:-_ENSG00000143248_ENST00000313961|hu_hu|hu_hu_hu_mus_False|88_88 (ssRNA)
RNA: GGGAGUUCUACAGUCCGACGAUCUUUUAUUAUCAGUAAGAGUGAGUCACAUAGUACGCAAAGUAUUGGAUACAAUAAUCAGGAAACAAACACUAUUGGUCCAGAAUUUAAAACUUUAUGAGCGAAGUGCUGGCACAGGACUUACAACAGAGGAUUGAGCAUCA
B22: chr13:14287670:14287671:+_ENSMUSG00000039219_ENSMUST00000039538|mus_hu|motif|central (ssRNA)
RNA: GGGAGUUCUACAGUCCGACGAUCAGCAGCACUUUCUCUCUCUUUCUUCUUUAAACGCUUUCUCCUCCGAUCAAUGGAAGCGGCUUCAGAUUUUAAUGACAGAUAAUGUUUUCUGAUUUCUUGAAGUUUUUCUUGAAGAAUUGUCAACAGAGGAUUGAGCAUCA

The target in the test is T1, UNK ZnF1-3. As to the kind of experiment: nsRBNS (natural sequence RNA bind-n-seq); RBNS binding buffer (assumed for nsRBNS): 25 mM Tris pH 7.5, 150 mM KCl, 3 mM MgCl2, 0.01% Triton X-100, 500 ug/ml BSA, 20 U/ml SUPERase-In, 4 C; UNK is unkempt and MSI1 is Musashi-1; names of the RNAs are library labels; protein concentration not given here; high values mean tight binding.
B1 registered a binding signal of 0.98 enrichment R. Take B2: the binding signal is 0.425 enrichment R. With B3, the binding signal stood at 0.692 enrichment R. For the molecule B4, the binding signal was 0.741 enrichment R.

With B5, the binding signal is 0.746 enrichment R. The molecule B6 registered a binding signal of 2.39 enrichment R. Turning to B7, the binding signal is 0.67 enrichment R.

B8 showed a binding signal of 1.24 enrichment R. Molecule B9 came in with a binding signal of 0.606 enrichment R. B10: the binding signal is 1.13 enrichment R. The molecule B11 showed a binding signal of 0.612 enrichment R. B12 came in with a binding signal of 2.37 enrichment R. For the molecule B13, the binding signal stood at 2.19 enrichment R. With B14 the figure was 0.755 enrichment R; with B15, 0.956 enrichment R. B16 had a binding signal of 1.57 enrichment R.

B17 displayed a binding signal of 1.13 enrichment R. For the molecule B18, the binding signal came to 1.11 enrichment R. With B19 the figure was 0.546 enrichment R. Consider B20, for which the binding signal turned out to be 0.326 enrichment R.

As to B21, the binding signal came out at 1.68 enrichment R.

In the case of B22, the binding signal is 1.04 enrichment R.
